PubChem BioAssay AID995 (National Center for Advancing Translational Sciences (NCATS), 2007)
The whole screen tested about 72,000 compounds, of which about 710 (0.99%) were called active. Inconclusive results, whose numbers are uncertain, are shown with a selection of clear calls. Calls come from the whole dose curve; as a rule, active = well fitted inhibition curve with a large enough effect; inconclusive = small, poorly fitted or top-dose-only effect; inactive = no such curve, though single readings can be large or run the other way. Potencies of inconclusive entries are left out as doubtful fits.
% is set by controls: 0 for no effect and ±100 for the full control effect; potency is the fitted concentration of half-maximal effect; tags give direction and shape of the fitted curve.

Experiment: qHTS Assay for Inhibitors of the ERK Signaling Pathway using a Homogeneous Screening Assay; note: nearly all actives have a fitted effect of over 55% in size
Settings: HEK293-V1b, vasopressin-stimulated pERK AlphaScreen; activity, negative = inhibition: at 57.5 µM (top of the series) unless noted
Method in brief: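 Overnight-seeded V1b-HEK293 cells in 1% FBS got compound, then vasopressin (25 nM final, 5 min, 37C), then lysis buffer. AlphaScreen detection of phospho-ERK; activity normalized to basal and full-stimulation controls.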
In the case of CCn1c(N2CCN(C(=O)C34CC5CC(CC(C5)C3)C4)CC2)nc2ccccc21, the “activity, negative = inhibition” value is reported as inactive: -22.3%. For COc1ccc(CC(C(=O)Nc2cc(C)ccc2C)/C(N)=N/O)cc1 (stereo unspecified), the Potency was inconclusive [inhibitor, single point]. With CCn1c(SCC(=O)Nc2nc3ccccc3s2)nnc1-c1ccc(OC)cc1 the “activity, negative = inhibition” value was inactive: 18.1%. For COc1ncc2nc(CCc3ccccc3)c(=O)n(C)c2n1, the “activity, negative = inhibition” value was inactive: 2.32%. In the case of CC[C@]1(O)C[C@@H]2CN(CCc3c([nH]c4ccccc34)[C@](C(=O)OC)(c3cc4c(cc3OC)N(C)[C@H]3[C@](O)(C(=O)OC)[C@@H](C(=O)OC)[C@@]5(CC)C=CCN6CC[C@@]43[C@@H]65)C2)C1, the “activity, negative = inhibition” value is reported as inactive: -12.2%. With O=C1C(Cl)=C(NC2CCc3ccccc32)C(=O)c2ncccc21 (stereo unspecified) the Potency was inconclusive [inhibitor, single point]. For CCc1ccc2nc(NC(=O)CSCc3c(C)noc3C)sc2c1, the Potency was inconclusive [inhibitor, single point]. With C=CCSC1=N/C(=C\C=C\c2ccco2)C(=O)S1 the Potency was inconclusive [inhibitor, single point]. In the case of CC(C)Oc1ccccc1C1CC(=O)Nc2cc3c(cc21)OCCO3 (stereo unspecified), the Potency is reported as active: 15.8 µM. In the case of Cc1cc(=O)oc2cc(OCC(=O)NCCCN3CCOCC3)ccc12, the “activity, negative = inhibition” value is reported as inactive: -13.9%. With CCCn1c(=O)[nH]c(=O)c2c1nc(-c1ccccc1OC(F)F)n2CCOC the “activity, negative = inhibition” value was inactive: 14.1%. For CCn1c2ccccc2c2cc(/C=N/n3cnnc3)ccc21, the “activity, negative = inhibition” value was inactive: -14.9%. In the case of CN(C)C(=O)c1ccc(-c2ccc3ncnc(N4CCOCC4)c3c2)cc1, the Potency is reported as inconclusive [inhibitor, partial curve]. In the case of O=S(=O)(NC1CCCCC1)c1cccc(-c2nnc(-c3ccccc3)o2)c1, the Potency is reported as inconclusive [inhibitor, single point]. In the case of Cc1ccc(OC[C@H](O)[C@H](C)NC(C)C)c2c1CCC2, the Potency is reported as “inactive”. For N#CCCn1c(=O)c(-c2ccc(F)cc2)nc2cnc(OCc3ccccc3)nc21, the Potency was inconclusive [inhibitor, partial curve, poor fit]. For O=C(OCc1nnc(-c2ccc(Cl)cc2)o1)c1ccncc1, the “activity, negative = inhibition” value was inactive: 8%. For COc1cc2ccc(=O)oc2c(OC)c1OC, the “activity, negative = inhibition” value was inactive: -6.81%. In the case of COc1ccc2[nH]cc(CCNc3ncncc3-c3ccccc3Cl)c2c1, the Potency is reported as inconclusive [inhibitor, single point]. In the case of C=CCSc1nc2ccccc2n1Cc1nnc(-c2cccs2)o1, the Potency is reported as inconclusive [inhibitor, partial curve]. For CN1CCN(CCCNC(=O)c2cn(C)c3ccc(S(=O)(=O)N(C)C)cc3c2=O)CC1, the Potency was inconclusive [inhibitor, single point]. With Cc1nn(-c2ccc(F)cc2)c2sc(C(=O)N3CCCCCC3)cc12 the “activity, negative = inhibition” value was inactive: 21.2%. For COC(=O)c1cc(NCc2c(F)cccc2Cl)ccc1N1CCOCC1, the activity, negative = inhibition was inconclusive: -44.6% [inhibitor]. For OCCNc1nc(C2CC2)nc2c1nnn2Cc1ccccc1Cl, the Potency was inconclusive [inhibitor, single point]. With COc1ncc2nc(-c3cc(F)cc(F)c3)c(=O)n(CCC#N)c2n1 the “activity, negative = inhibition” value was inactive: -30.6%. With CN(C)c1ccc(C(=C2C=CC(=[N+](C)C)C=C2)c2c(O)c(S(=O)(=O)O)cc3cc(S(=O)(=O)O)ccc23)cc1 the Potency was inconclusive [inhibitor, single point]. In the case of Nc1ccccc1NC1=CC(=O)CC(c2ccco2)C1 (stereo unspecified), the Potency is reported as inconclusive [inhibitor, partial curve]. In the case of CCOC(=O)c1ccc(NS(=O)C23CC4CC(CC(C4)C2)C3)cc1 (stereo unspecified), the Potency is reported as inconclusive [inhibitor, single point]. In the case of COc1cc2c(cc1OC)C(c1ccc(C)o1)CC(=O)N2 (stereo unspecified), the Potency is reported as inconclusive [inhibitor, single point]. With CCOC(=O)N/N=C1/C[C@@H](O)[C@@H](O)[C@@H]2[C@@H]3C(=O)N([C@@H](C)c4ccccc4)C(=O)[C@H]3CC[C@@H]12 the activity, negative = inhibition was inactive: 2.09% [at 11.5 µM]. In the case of Cc1noc(C)c1COc1ccc(C(=O)OCC(=O)N2CC3(C)CC2CC(C)(C)C3)cc1 (stereo unspecified), the Potency is reported as inconclusive [inhibitor, single point]. In the case of COc1cc(CN2CCN(C(=O)CC(C)C)CC2)cc(OC)c1O, the Potency is reported as inconclusive [inhibitor, partial curve]. For O=[N+]([O-])c1ccc(S(=O)(=O)Cc2ccccc2)c([N+](=O)[O-])c1, the Potency was inconclusive [inhibitor, single point]. With CCOC(=O)C1=C(C)NC(=O)NC1c1ccc(Cl)cc1Cl (stereo unspecified) the Potency was inconclusive [inhibitor, partial curve]. With CN(C)c1cc(-c2cccc(NS(C)(=O)=O)c2)ncn1 the Potency was inconclusive [inhibitor, partial curve]. For COc1ccccc1N1CCN(C(=O)CCCC2=NS(=O)(=O)c3ccccc3N2)CC1, the Potency was inconclusive [inhibitor, single point]. For NC(N)=Nc1nc(CSCC/C(N)=N\S(N)(=O)=O)cs1, the “activity, negative = inhibition” value was inactive: 17.7%. With Cc1cc(-c2ccccc2)n2ncc(C#N)c2n1 the Potency was inconclusive [inhibitor, single point]. For CN(C)S(=O)(=O)c1ccc(C(=O)Nc2ccc(OCC(=O)N3CCOCC3)cc2)cc1, the “activity, negative = inhibition” value was inactive: -9.31%. With O=C(Nc1nnc(-c2ccccc2)s1)c1ccc(Cl)c(S(=O)(=O)N2CCOCC2)c1 the “activity, negative = inhibition” value was inactive: 10.2%. For COc1ccc(CC(=O)NC2CCN(CC(=O)N3CCCc4ccccc43)CC2)cc1OC, the Potency was inconclusive [inhibitor, partial curve]. In the case of CC(=O)c1c(C)n(-c2ccc(N(C)C)cc2)c2ccc(OCC(N)=O)cc12, the Potency is reported as inconclusive [inhibitor, partial curve]. For CCOC(=O)c1c(N)sc2c1CCCC2, the Potency was inconclusive [inhibitor, partial curve]. With Nc1ncnc2c1ncn2[C@@H]1O[C@H](COP(=O)(O)O)[C@@H](O)[C@@H]1O the “activity, negative = inhibition” value was inactive: -25.6% [at 25.7 µM]. In the case of c1ccc(CN2CCN(CCCNc3ccc4nnc(-c5ccccc5)n4n3)CC2)cc1, the Potency is reported as active: 39.8 µM. For Cc1sc2ncnc(NCc3ccco3)c2c1C, the Potency was inconclusive [inhibitor, full curve]. For COC(=O)C/C=C\[C@@H](C)[C@@H](/C=N\O[C@@H](C)CN1CCCc2nc(C)c(C)cc21)OC, the activity, negative = inhibition was inactive: 14% [at 11.5 µM]. For N#Cc1cccc(-c2nccc(NCc3cccs3)n2)c1, the Potency was inconclusive [inhibitor, partial curve]. For O=C(CN1CCCC1)NCC1(c2ccccc2)CCOCC1, the Potency was inconclusive [inhibitor, partial curve]. For Cc1cccc(-n2c(O)c(C=NCCCN3CCOCC3)c3ccccc3c2=O)c1, the Potency was inconclusive [inhibitor, single point]. With C/C=C(/C)C#N the “activity, negative = inhibition” value was inactive: -4.09%. For Cc1ccc(S(=O)(=O)NCCOc2nc(N(C)C)nc(N3CCOCC3)n2)cc1, the “activity, negative = inhibition” value was inactive: -13.5%. In the case of CCCCC(=O)N(c1ccc(OCC)cc1)C1C=CS(=O)(=O)C1 (stereo unspecified), the “activity, negative = inhibition” value is reported as inactive: 15.4%. With C[C@H](C(=O)c1ccncc1)c1ccccn1 the activity, negative = inhibition was inactive: -2.46% [at 11.5 µM]. In the case of O=S1(=O)C=C(Sc2nnc(-c3ccccc3)o2)c2ccccc21, the Potency is reported as inconclusive [inhibitor, single point]. In the case of Clc1cc(Br)ccc1OCCn1ccnc1, the Potency is reported as inconclusive [inhibitor, partial curve]. With COc1ccc(CNc2nc(SCC(=O)NCc3ccco3)nc3ccccc23)cc1 the Potency was inconclusive [inhibitor, partial curve]. In the case of CN(C)S(=O)(=O)c1cc(C(=O)NCCCn2ccc3ccccc32)ccc1Cl, the Potency is reported as inconclusive [inhibitor, single point]. For CCOC(=O)c1ccc(N2C(=O)c3n[nH]c(C)c3C2c2ccc(O)cc2)cc1 (stereo unspecified), the “activity, negative = inhibition” value was inactive: -27%. For O=C(O)c1ccc(Cl)c2c1C1C=CCC1C(c1ccccn1)N2 (stereo unspecified), the Potency was inconclusive [inhibitor, partial curve]. For COc1ccc(S(=O)(=O)N(C)c2ccc(OCC(=O)Nc3cc(C)on3)cc2)cc1, the “activity, negative = inhibition” value was inactive: -17.1%. For CCC(=O)Nc1ccc(Nc2ccccc2)cc1, the “activity, negative = inhibition” value was inactive: -10.6%. With O=C(CSc1nc2ccncc2[nH]1)Nc1ccccc1C(F)(F)F the Potency was inconclusive [inhibitor, partial curve]. For Cc1noc(C)c1S(=O)(=O)Nc1ccc(C(=O)NC2CCCCCC2)cc1, the “activity, negative = inhibition” value was inactive: 9.26%. With CCCCCSc1nnc(-c2cc(Br)ccc2N)c(=O)[nH]1 the Potency was inconclusive [inhibitor, partial curve]. With O=C1CCCC=C1[C@@H](O)COCc1ccccc1 the activity, negative = inhibition was inactive: 7.37% [at 11.5 µM]. In the case of COc1ccc(CN(CCN2CCOCC2)C(=O)c2c(F)cccc2F)cc1OC, the Potency is reported as inconclusive [inhibitor, partial curve, poor fit]. In the case of Cc1ccc2c(CC(=O)NCc3ccco3)coc2c1C, the “activity, negative = inhibition” value is reported as inactive: -28.7%. For CO[C@@H]1CC[C@@]2(C)[C@@H](CC[C@@]3(C)[C@H]2CC=C2[C@H]4CC(C)(C)[C@H](O)[C@@H](OC(C)=O)[C@]4(CO)[C@H](O)C[C@]23C)[C@@]1(C)CO (tested in a mixture with another compound), the Potency was inconclusive [inhibitor, partial curve]. In the case of COc1ccc(Cn2c(=O)n(Cc3ccco3)c(=N)c3c4c(sc32)COC(C)(C)C4)cc1, the Potency is reported as inconclusive [inhibitor, full curve]. In the case of O=C(NCCC1=CCCCC1)c1ccc2c(=O)n3c(nc2c1)CCCCC3, the Potency is reported as inconclusive [inhibitor, partial curve, poor fit].
